Toxic doses and inconclusive results are not listed. Certain results were filed several times, with different values. The list is limited to them. There may be further records. Values that stand side by side are repeats (runs, samples, wells, individuals or studies).
System: AK4 lymphoid leukemia ip, C3AKF1 mice, survival
Assay: NCI In Vivo Anticancer Drug Screen. Data for tumor model AK4 Lymphoid Leukemia (intraperitoneal) in C3AKF1 (CHKRF1) mice
Settings: endpoint: median survival time, schedule: Q01DX010 (ip), higher = longer survival
Experimental: The antitumor activity of compounds was measured in mice bearing transplantable tumors. Survival or tumor size were measured and the results are expressed as the measurement made in the treated group (T) divided by the measurement made in the vehicle treated control group (C). The tumor model used in this assay is AK4 Lymphoid Leukemia (intraperitoneal) in C3AKF1 (CHKRF1) mice

SMILES: O=C(Nc1ccc(C2=NCCN2)cc1)c1ccc(C(=O)Nc2ccc(C3=NCCN3)cc2)c([N+](=O)[O-])c1
- T/C (dose: 8.0 mg/kg/injection, vehicle: saline): 100 % of control and 150 % of control

SMILES: CC[C@]1(O)C[C@H]2CN(CCc3c([nH]c4ccccc34)[C@@](C(=O)OC)(c3cc4c(cc3OC)N(C=O)[C@H]3[C@@](O)(C(=O)OC)[C@H](OC(C)=O)[C@]5(CC)C=CCN6CC[C@]43[C@@H]65)C2)C1
- T/C (dose: 0.12 mg/kg/injection, vehicle: saline): 112 % of control and 160 % of control

SMILES: CN(C)/N=N/c1nc[nH]c1C(N)=O
- T/C (dose: 50.0 mg/kg/injection, vehicle: saline): 116 % of control and 150 % of control

SMILES: CN(Cc1cnc2nc(N)nc(N)c2n1)c1ccc(C(=O)N[C@@H](CCC(=O)O)C(=O)O)cc1
- T/C (dose: 0.19 mg/kg/injection, vehicle: other): 110 % of control and 156 % of control

SMILES: NC(=O)N(CCCl)N=O
- T/C (dose: 2.0 mg/kg/injection, vehicle: saline): 118 % of control and 170 % of control

From PubChem BioAssay AID236 (DTP/NCI, 2004)
